These results are taken from ChEMBL document CHEMBL4888484, “Replenishing the malaria drug discovery pipeline: Screening and hit evaluation of the MMV Hit Generation Library 1 (HGL1) against asexual blood stage Plasmodium falciparum ,using a nano luciferase reporter read-out” (2022).

In all, about 150,000 compounds went through this assay and about 540 (0.36%) showed an effect of 50% or more. This is one part of the list.

The test system of this test is Plasmodium falciparum. Put plainly: Primary screen in NF54 nanoGlo assay, in single point, at 2uM, 72h; a lower Z score goes with more inhibition. Conditions: timepoint 72 hour. The test is classed as functional, Erythrocyte.
Usually % Inhibition stands for the relative decrease from the control value, in per cent. In the case of `Cn1cc([C@@H]2CCCN2CC(=O)Nc2cc(C(C)(C)C)no2)cn1`, the “% Inhibition” value is on record as -3% and the Z score is on record as 0.48.
For the molecule `CCn1cnc2c(-c3ccccc3)cn(CC(=O)NCc3ccco3)c2c1=O`, the “% Inhibition” value was -9% and the Z score is given as 1.31.
For `C=C(C)COc1ccccc1C(=O)N[C@H]1C[C@H]2C(=O)NCC(=O)N2C1` the same measures were -5% and 0.79.
`Cc1cc(C(=O)NC2CCCC2)ccc1NCC(=O)N1C(C)CCCC1C` (stereo unspecified): the “% Inhibition” value was -4% and the Z score worked out at 0.51.
In the case of `CN(C)S(=O)(=O)c1cc(NCc2cccc(-c3ccco3)c2)cc(C(=O)N2CCC[C@H](C(N)=O)C2)c1`, the “% Inhibition” value was -26% and the Z score is 3.02.
For `CCn1cc(-c2nc(C(=O)NCc3cccc(F)c3)cs2)c2cccnc21`, the “% Inhibition” value was -8% and the Z score came out at 1.41.
With `COc1cc(C(=O)N2CCN3CCOc4cccc2c43)ccc1OCC(N)=O`, the “% Inhibition” value amounted to 0% and the Z score is reported as 0.05.
On to `CC[C@@H](C(=O)NC(C)(C)C)N1CCn2nc(Cc3ccccc3)cc2C1`, for which the “% Inhibition” value is on record as -10% and the Z score was 1.
Consider `O=C(NCc1ccncc1)NC1CCCC1Oc1ccccc1` (stereo unspecified), for which the “% Inhibition” value came out at 0% and the Z score is reported as 0.05.
For `CC[C@H](NC(=O)c1cccc(F)c1C)C1CC(O)C1` (stereo partly specified) the same measures were -7% and 0.93.
For `COc1cccc(OC[C@@H](O)CNC(=O)C2CCN(c3nc(C)c4cc5c(cc4n3)CCC5)CC2)c1` the same measures were 2% and -0.37.
For `Cn1cc(C(=O)N[C@H]2CCOC[C@@H]2Oc2cccc(F)c2)cn1` the same measures were -6% and 0.78.
Take `CN1CCC([n+]2nn(-c3ccccc3)c([O-])c2C(=O)Nc2ccccc2)CC1`: the “% Inhibition” value was 0% and the Z score was -0.05.
For `COc1ncc(CNCc2cncn2CC(C)C)cn1` the same measures were -23% and 2.43.
As for `CCN(CC1CCOCC1)C(=O)Nc1cc(-n2cnnn2)cc(C)c1C`, the “% Inhibition” value is on record as 4% and the Z score was -0.68.
On the same counts, the results for `CC[C@H](C)CC(=O)NS(=O)(=O)c1ccc2nc[nH]c(=O)c2c1` are 2% and -0.33.
For `CCNc1cnc(-c2noc(CC3(C)CC3)n2)cn1` the same measures were -8% and 1.04.
For `O=C(Cc1ccon1)N[C@@H]1CCCOC1` the same measures were 7% and -1.35.
For `COc1ccnc(C(=O)N2CCc3[nH]nc(C)c3C2)c1`, the “% Inhibition” value came out at 3% and the Z score is -0.49.
With `CC(C)CCn1c(=O)c2sccc2n(CC(=O)NC2CCCCC2)c1=O`, the “% Inhibition” value was determined as 31% and the Z score is on record as -3.55.
As for `O=S(=O)(NCCNC1CC1)c1c(F)c(F)cc(F)c1F`, the “% Inhibition” value is -10% and the Z score is recorded as 1.87.
Consider `Cc1cc(O)nc(C=Cc2cn(C)nc2C(C)(C)C)n1`, for which the “% Inhibition” value is -5% and the Z score is recorded as 0.61.
Consider `CCn1cncc1-c1nc2c([nH]1)c(-c1ccccc1)nn2C`, for which the “% Inhibition” value is recorded as -2% and the Z score is 0.29.
On the same counts, the results for `COc1ccccc1[C@@H](NC(=O)CCc1cncn1C)c1ccco1` are 1% and -0.16.
For `Cc1nc(C)c([C@H](C)N(C)S(=O)(=O)c2cccnc2C#N)s1` the same measures were -3% and 0.42.
In the case of `CC(C)[C@H](NC1CCOCC1)c1ncnn1C`, the “% Inhibition” value was -6% and the Z score stood at 0.84.
For `O=C(NC(CO)C(O)c1ccccn1)[C@H]1C[C@@H]1c1ccccc1Cl` (stereo partly specified) the same measures were -2% and 0.25.
On the same counts, the results for `O=C(NCCc1nnc2ccccn12)c1csc(NC2CC2)n1` are -10% and 1.11.
For `C[C@@H](NC(=O)c1ccc(C(N)=O)s1)c1ncc[nH]1` the same measures were 2% and -0.43.
As to `CC(C)c1nn(-c2ccccc2)c(N(C)C)c1CN(CC1CC1)C(=O)C1CCC1`, the “% Inhibition” value is listed as 2% and the Z score is -0.4.
`Cc1cnc(CN2C[C@@](C)(c3ccccc3)CCC2=O)cn1`: the “% Inhibition” value is recorded as -9% and the Z score is reported as 1.77.
On the same counts, the results for `Cc1ccc(Br)c(S(=O)(=O)NC2(C#N)CC2)c1` are -5% and 0.49.
Turning to `CCN(CC)C(=O)N1CCC[C@H](C(=O)Nc2cccc(C)c2C)C1`, the “% Inhibition” value was 0% and the Z score is on record as 0.01.
On the same counts, the results for `CCNC(=O)N1CCC[C@H](Cn2c(C3CC3)nc3cccnc32)C1` are -20% and 3.11.
For `Cc1occc1CN(C)c1nnc(C(C)(C)C)n1C[C@H]1CCCO1`, the “% Inhibition” value was -4% and the Z score is reported as 0.73.
Consider `CCCN(Cc1ccncc1)C(=O)[C@H]1CCC(=O)N(CCc2ccccc2)C1`, for which the “% Inhibition” value is -13% and the Z score was found to be 2.26.
For `Cc1nc(C(=O)N2CCC[C@@]3(CCC(=O)N(CCc4c[nH]cn4)C3)C2)cs1` the same measures were -9% and 0.98.
`Cc1nc(Cn2ncc(N(C)C)cc2=O)n(C)n1`: the “% Inhibition” value is -1% and the Z score is on record as 0.07.
Take `CCOC(=O)C(C#N)C(Cc1ccccc1)C1CCOC(C)(C)C1` (stereo unspecified): the “% Inhibition” value was -4% and the Z score was determined as 0.53.
On the same counts, the results for `CCC(=O)N(CC(=O)N(Cc1ccccc1)Cc1ccc(C)o1)C1CC1` are -4% and 0.42.
Consider `Cc1nc2ccccc2n1C(=O)c1sc2ccccc2c1Cl`, for which the “% Inhibition” value was determined as 43% and the Z score is listed as -5.1.
For `Cc1cc(S(=O)(=O)N(C)C)cc(NC(=O)COc2cc3nc(-c4ccccc4)cc(C)n3n2)c1C` the same measures were -12% and 2.35.
For `C[C@H]1CCCN(CCC(=O)N(C)Cc2cc3ccccc3s2)C1` the same measures were -6% and 1.23.
For `NC(=O)N1CCC[C@H]1C(=O)NC1CC2CCC1C2` (stereo partly specified) the same measures were 26% and -3.33.
With `CC(C)(C)c1noc(-c2ccsc2S(N)(=O)=O)n1`, the “% Inhibition” value was -10% and the Z score turned out to be 2.01.
On the same counts, the results for `CCC1C[N+]2([O-])CCc3cc(OC)c(OC)cc3C2CC1CC1NCCc2cc(OC)c(OC)cc21` (stereo unspecified) are 32% and -3.58.
On the same counts, the results for `CC[C@H](C)N(Cc1cccc(OS(=O)(=O)CC)c1)C(=O)CC(C)C` are -3% and 0.55.
For the molecule `CN(C)[C@@H]1CN(C(=O)c2ccc3ccccc3n2)CC[C@@H]1CO`, the “% Inhibition” value is on record as -17% and the Z score is reported as 2.23.
Take `COCc1nc(NCCCc2ccccc2F)cc([C@H]2C[C@@H](N)C2)n1`: the “% Inhibition” value is 11% and the Z score is -1.63.
For `O=C(NCC1(N2CCCC2)CCCC1)c1cc(=O)n(-c2ccccc2)[nH]1` the same measures were -6% and 1.07.
As for `Cc1nc(C)c(C(=O)N2CCNC(=O)[C@@H](CC(C)C)NC(=O)c3cc(F)ccc3OCCn3cc(nn3)CC2)s1`, the “% Inhibition” value was 1% and the Z score is given as -0.14.
On the same counts, the results for `Oc1ccc2c(c1)CN(CCc1cn[nH]c1)C2` are -4% and 0.4.
Turning to `COc1ccc(NC(=O)[C@H](Nc2ccc3oc(C)nc3c2)c2ccccc2)cc1Cl`, the “% Inhibition” value is 19% and the Z score is -2.17.
